This assay deals with TRAPPIII complex (Saccharomyces cerevisiae) (UniProt P46944). The assay is described as follows: cryo-EM structure; TRAPPIII (after anion exchange) mixed 1:3 with Ypt1-7xHis, overnight at 4°C with calf intestinal alkaline phosphatase, complex isolated by SEC in 10 mM Tris pH 7.5, 350 mM NaCl, 1 mM DTT; 3.7 Å reconstruction; both purified. A general note: SEC sorts molecules by how far they enter the pores of the column.

Amino acid sequences for entries named in this document (tags omitted). A change or cut given only in a name is not applied to a line headed by its entry.
UniProt P46944: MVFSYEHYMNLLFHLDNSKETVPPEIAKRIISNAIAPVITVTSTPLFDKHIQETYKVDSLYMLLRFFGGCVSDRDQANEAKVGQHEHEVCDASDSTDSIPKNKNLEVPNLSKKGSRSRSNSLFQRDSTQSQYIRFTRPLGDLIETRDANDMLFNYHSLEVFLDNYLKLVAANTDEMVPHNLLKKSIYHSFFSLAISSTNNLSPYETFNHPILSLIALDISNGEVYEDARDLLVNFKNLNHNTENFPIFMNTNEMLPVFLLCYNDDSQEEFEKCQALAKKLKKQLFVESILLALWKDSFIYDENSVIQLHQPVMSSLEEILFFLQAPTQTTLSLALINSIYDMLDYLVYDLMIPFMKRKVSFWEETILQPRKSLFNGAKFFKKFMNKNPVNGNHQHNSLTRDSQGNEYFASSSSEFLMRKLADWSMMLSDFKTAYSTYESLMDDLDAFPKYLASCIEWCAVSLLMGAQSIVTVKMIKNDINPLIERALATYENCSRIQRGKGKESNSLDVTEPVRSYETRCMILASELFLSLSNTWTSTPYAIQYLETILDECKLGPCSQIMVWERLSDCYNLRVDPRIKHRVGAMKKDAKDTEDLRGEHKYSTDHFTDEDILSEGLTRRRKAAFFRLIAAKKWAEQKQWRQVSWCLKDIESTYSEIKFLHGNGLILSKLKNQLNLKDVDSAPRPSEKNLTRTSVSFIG

These are yes or no findings as the source states them, for the method shown. Some binding calls cover weakened binding; strength is not graded here.

As to “Rab1/Ypt1 (Ypt1-7xHis) (from UniProt P01123 1-206)”, the binding result was “binds”.
